The source gives no read counts; variants with many changes may rest on few reads.
B1: CPEB3 Ribozyme (parent)
chain: UAACAGGGGGCCACAGCAGAAGCGUUCACGUCGCAGCCCCUGUCAGAUUCUGGUGAAUCUGCGAAUUCUGCUGUAUAUCUC

Variants of: B1
Assay: self-cleavage, relative activity (ratio to wild type); higher = more cleavage; in vitro, sequencing
Procedure, shortened: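 For each CPEB3 ribozyme variant, relative activity is its cleaved/total read fraction divided by the unmutated ribozyme's. Barcoded error-prone PCR libraries were transcribed by T7 RNA polymerase (5 hours, 37°C) and held in DNase I for 15 min before an EDTA stop, with cleavage occurring throughout. Template-switching reverse transcription and Illumina sequencing were used to read the RNAs. A 5-read minimum applied, and results are the mean of three batches.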

With U43C A65G U69A as the variant, how does the self-cleavage read?
Its self-cleavage is 0.2.

With U43C G52A U72C as the variant, how does the self-cleavage read?
The self-cleavage was 0.94.

Which self-cleavage does the source give for U43C C71A A75G U78A here?
Its self-cleavage is 0.1.

With U43C U54C U78A as the variant, how does the self-cleavage read?
The self-cleavage was 0.35.

With U43A U74C U80C as the variant, how does the self-cleavage read?
Its self-cleavage is 1.26.

Which self-cleavage does the source give for U43C C59U U67C here?
Its self-cleavage is 0.12.

With U43C U49C U60C as the variant, how does the self-cleavage read?
Its self-cleavage is 0.09.

For U43C U48C U67C, which self-cleavage is on record?
The self-cleavage was 0.36.

Which self-cleavage does the source give for U43C U51C A64G U67A here?
Its self-cleavage is 0.43.

For U43A A56G U69G, which self-cleavage is on record?
The self-cleavage was 0.6.

For U43C A77G U80A, which self-cleavage is on record?
Its self-cleavage is 0.77.

With U43C A45G C71U as the variant, how does the self-cleavage read?
Its self-cleavage is 0.19.

With U43C U48C C62A as the variant, how does the self-cleavage read?
The self-cleavage was 0.58.

With U43C U60C U72A as the variant, how does the self-cleavage read?
The self-cleavage was 0.39.

Which self-cleavage does the source give for U43C U58G U67A U69C U76A U78C here?
Its self-cleavage is 0.07.

With U43A U69A A75G U80C as the variant, how does the self-cleavage read?
The self-cleavage was 0.46.

For U43A U51C U80A, which self-cleavage is on record?
The self-cleavage was 1.24.

Which self-cleavage does the source give for U43C G61A A75G here?
The self-cleavage was 0.15.

Which self-cleavage does the source give for U43A U48C U66C here?
Its self-cleavage is 0.12.

With U43C A57G A64C U69G U74G as the variant, how does the self-cleavage read?
Its self-cleavage is 0.2.

For U43C U54C A77G, which self-cleavage is on record?
The self-cleavage was 0.23.

With U43C U60A C62G as the variant, how does the self-cleavage read?
The self-cleavage was 0.16.

For U43C A56G A64G U67C, which self-cleavage is on record?
Its self-cleavage is 0.14.

Which self-cleavage does the source give for U43C U66A U80A here?
Its self-cleavage is 0.24.

With U43A U51A G55U U78A as the variant, how does the self-cleavage read?
The self-cleavage was 0.98.

With U43C U54C C62U A64G U78C as the variant, how does the self-cleavage read?
The self-cleavage was 0.11.

With U43A U58C U74C as the variant, how does the self-cleavage read?
Its self-cleavage is 0.9.

For U43A U49A U51A, which self-cleavage is on record?
The self-cleavage was 0.42.

For U43C A56U U60A, which self-cleavage is on record?
Its self-cleavage is 0.14.

With U43C C50G U78C as the variant, how does the self-cleavage read?
Its self-cleavage is 0.14.

For U43C U54G C62U, which self-cleavage is on record?
The self-cleavage was 0.26.

For U43A U54A A56G, which self-cleavage is on record?
The self-cleavage was 0.75.

With U43A U51C A57G A65G as the variant, how does the self-cleavage read?
The self-cleavage was 0.5.

Which self-cleavage does the source give for U43A A45U U67C U78C here?
Its self-cleavage is 0.16.

Which self-cleavage does the source give for U43A A64G U72A here?
Its self-cleavage is 0.69.

With U43C A56U U69C as the variant, how does the self-cleavage read?
Its self-cleavage is 0.26.

With U43A U48C A56G U76C U80A as the variant, how does the self-cleavage read?
Its self-cleavage is 0.38.

With U43A A57G A64G U72C as the variant, how does the self-cleavage read?
Its self-cleavage is 0.94.

Which self-cleavage does the source give for U43C U51A A56G here?
Its self-cleavage is 0.26.

For U43C C59U U78C, which self-cleavage is on record?
Its self-cleavage is 0.17.

Which self-cleavage does the source give for U43A U60C A65G here?
The self-cleavage was 0.22.

For U43A U54C U67A U80C, which self-cleavage is on record?
Its self-cleavage is 0.65.

Which self-cleavage does the source give for U43C G53U U69A here?
Its self-cleavage is 0.32.

For U43A U67C A77G, which self-cleavage is on record?
Its self-cleavage is 0.51.

For U43C U48C G55A A56G U67C, which self-cleavage is on record?
The self-cleavage was 0.16.

With U43C C44U A47U A57C U66A as the variant, how does the self-cleavage read?
Its self-cleavage is 0.19.

For U43A U67G U72C, which self-cleavage is on record?
The self-cleavage was 0.42.

For U43A A56G U66A U69C, which self-cleavage is on record?
The self-cleavage was 0.22.

For U43C A45U U80C, which self-cleavage is on record?
The self-cleavage was 0.12.

For U43C A45U U69C U80C, which self-cleavage is on record?
Its self-cleavage is 0.07.

With U43C U67A U76A as the variant, how does the self-cleavage read?
Its self-cleavage is 0.4.

For U43C U48C U51C, which self-cleavage is on record?
The self-cleavage was 0.22.

For U43A A64G A65G, which self-cleavage is on record?
The self-cleavage was 0.22.

For U43C A56U U72C, which self-cleavage is on record?
The self-cleavage was 0.16.

Which self-cleavage does the source give for U43C U49C G70C here?
Its self-cleavage is 0.14.

For U43C U54C U72A U80C, which self-cleavage is on record?
Its self-cleavage is 0.73.

Which self-cleavage does the source give for U43C A47U U80A here?
Its self-cleavage is 0.21.

With U43A U67C U72C as the variant, how does the self-cleavage read?
Its self-cleavage is 0.38.

For U43C A45U A56G, which self-cleavage is on record?
The self-cleavage was 0.36.

Which self-cleavage does the source give for U43C C44A U48C U78A here?
The self-cleavage was 0.25.

With U43C A47G U54C U69C as the variant, how does the self-cleavage read?
Its self-cleavage is 0.22.

Which self-cleavage does the source give for U43C U51A A65G U72C U76C here?
Its self-cleavage is 0.32.

For U43A U48A G61A U69C A77U, which self-cleavage is on record?
The self-cleavage was 0.16.

With U43C U54C A64G as the variant, how does the self-cleavage read?
Its self-cleavage is 0.15.

For U43C A47G U66C, which self-cleavage is on record?
Its self-cleavage is 0.1.

Which self-cleavage does the source give for U43C A45G U74C U80A here?
Its self-cleavage is 1.06.

Which self-cleavage does the source give for U43A U66C U76A U80C here?
The self-cleavage was 0.38.

With U43C A47G U60C U80C as the variant, how does the self-cleavage read?
Its self-cleavage is 0.17.

For U43C U49C U74C, which self-cleavage is on record?
Its self-cleavage is 0.22.

With U43C A45G A57G U76C as the variant, how does the self-cleavage read?
Its self-cleavage is 0.22.

Which self-cleavage does the source give for U43C A56U A65G U78C here?
Its self-cleavage is 0.09.

Which self-cleavage does the source give for U43C A45G U60C here?
The self-cleavage was 0.96.

With U43C G70U U74A as the variant, how does the self-cleavage read?
The self-cleavage was 0.1.

For U43A U60A U76C, which self-cleavage is on record?
The self-cleavage was 0.66.

For U43A U69A U72A A77U, which self-cleavage is on record?
The self-cleavage was 0.42.

Which self-cleavage does the source give for U43A A64G U78C here?
The self-cleavage was 1.16.

For U43C U60C G70U, which self-cleavage is on record?
Its self-cleavage is 0.1.

Which self-cleavage does the source give for U43C U49C U69C here?
Its self-cleavage is 0.15.

Which self-cleavage does the source give for U43C A57G U72C here?
Its self-cleavage is 0.46.

Which self-cleavage does the source give for U43C U49C G70A U80C here?
The self-cleavage was 0.24.

For U43C A64G U72A, which self-cleavage is on record?
Its self-cleavage is 0.49.

For U43A U48C U78C, which self-cleavage is on record?
Its self-cleavage is 0.77.

For U43C A57G U76C, which self-cleavage is on record?
The self-cleavage was 0.34.

For U43A G46U A47U C50U A56G, which self-cleavage is on record?
The self-cleavage was 0.2.

Reference: the RNAGym collection of RNA variant scans (doi:10.1093/nar/gkz1192)
